Results reported in PubChem BioAssay AID1508623 (National Center for Advancing Translational Sciences (NCATS), 2021).
Among all 48,000 compounds or so, about 450 (0.94%) were called active. Not shown: some 19% with an inconclusive outcome. The call rests on the fitted dose curve; in most records, active means well fitted inhibition curve with a large enough effect; inconclusive means small, poorly fitted or top-dose-only effect; inactive means no such curve, though single readings can be large or run the other way. This is one part of the list.

experiment: Primary qHTS for Identification of Small Molecule Inhibitors of Huntingtin Promoter Activity; details: HEK293 HTT promoter firefly luciferase reporter (activity 0% = vehicle and -100% = no light), 24 h; series mostly up to 57.5 µM; activity change, negative = inhibition: at the top concentration; further: nearly all actives have a fitted effect of over 50% in size
Procedure, shortened: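 HEK293 cells carrying firefly luciferase reporters were seeded at 2,500 per well in Opti-MEM and cultured for 24 h. They were then treated with compounds at up to 57.5 uM final for 24 h at 37 degrees C before Dual-Glo luminescence readout.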

| Compound | activity change, negative = inhibition |
| --- | --- |
| Cc1cccc(C(=O)Nc2sc3c(c2C(=O)O)CCCC3)c1 | inactive: -13.2% |
| Cc1cc(C)cc(NC(=O)CN(C)S(=O)(=O)c2ccc3c(c2)CCC(=O)N3)c1 | inactive: -18.3% |
| COc1cccc(CNC(=O)CC(c2ccc(C)cc2)N2Cc3ccccc3C2=O)c1 (stereo unspecified) | inactive: -11.8% |
| CCOC(=O)C(CC)Sc1nnc2[nH]c(=O)cc(C)n12 (stereo unspecified) | inactive: -12.3% |
| Cc1ccc(CNC(=O)c2cnn(-c3ccc(F)cc3F)c2C2CCN(C(=O)OC(C)(C)C)CC2)cc1 | inactive: -24.4% |
| CCCOc1ccc(C2C(=O)N(C3CCCCC3)CC(=O)N2CCC2=CCCCC2)cc1OC (stereo unspecified) | inactive: 3.55% |
| COc1ccc(NS(=O)(=O)c2ccc3c(c2)n(C)c(=O)c(=O)n3C)cc1Cl | inactive: -17.6% |
| O=C(CSc1n[nH]c(-c2ccccc2)n1)NCCc1ccccc1 | inactive: -14.1% |
| NC[C@H]1O[C@H](O[C@H]2[C@@H](O)[C@@H](O[C@H]3O[C@H](CO)[C@@H](O)[C@H](N)[C@@H]3O)[C@H](N)C[C@@H]2N)[C@H](N)C[C@H]1O | inactive: 2.73% |
| COc1cccc(CNC(=O)CCS(=O)(=O)c2cc3c4c(c2)CCN4C(=O)CC3)c1 | inactive: -18% |
| COc1ccccc1-c1ccnc2c(-c3ccc(Br)cc3)c(C)nn12 | inactive: -6.81% |
| CCc1ccc(Cn2c(CNS(=O)(=O)c3ccc(Cl)s3)nc3cccnc32)cc1 | inactive: -21.2% |
| CCOC(=O)c1cc2c(=O)n3ccccc3nc2n(CC2CCCO2)c1=NC(=O)c1ccccc1F (stereo unspecified) | inactive: -7.99% |
| COc1ccc(CNC(=O)C(C)n2nc(C)c3sc4ccccc4c3c2=O)cc1OC (stereo unspecified) | inactive: -12.8% |
| Cc1ccccc1NC(=O)CSc1nnc(-c2cccc(Cl)c2)o1 | inactive: 19.1% |
| Cc1nn2c(=O)cc(COC(=O)c3ccc(NC(=O)c4ccc(C(C)(C)C)cc4)cc3)nc2s1 | inactive: -13.5% |
| Cc1csc2nc(-c3cccc(NC(=O)c4ccccc4F)c3)cn12 | inactive: 21.7% |
| Cc1ccc(C)c(N2CCN(C(=O)c3cc(S(=O)(=O)N4CCCC4)c[nH]3)CC2)c1 | inactive: -20.6% |
| CCCOc1ccc(C(=O)Nc2ccc(NC(=O)c3cccc(Cl)c3)cc2)cc1 | inactive: -11.6% |
| COc1cccc(Nc2cc(-c3ccccc3)nc(C)n2)c1 | inactive: 23.7% |
| COc1ccc(NC(=O)c2c(NCc3cccc(OC)c3)sc3c2CCC3)cc1 | inactive: -7.02% |
| Cc1cccc(Nc2ncnc3c2cnn3C)c1C | inactive: -11.3% |
| Cc1ccc2c(c1)N(C(=O)N1CCC(C(=O)NC3CCCCCC3)CC1)CCO2 | inactive: -23.2% |
| CN(C)c1ccc(-c2nc(-c3ccncc3)no2)cc1[N+](=O)[O-] | inactive: 3.91% |

| Compound | activity change, negative = inhibition |
| --- | --- |
| COC(=O)c1ccc(NC(=O)CC2C(=O)N(c3ccccc3)C(=O)N2C2CCCC2)cc1 (stereo unspecified) | inactive: -22.8% |
| COc1ccc(CC(=O)N2CC(=O)Nc3ccc(Br)cc3C2c2ccc(F)cc2)cc1OC (stereo unspecified) | inactive: -17.3% |
| COc1cc2nc(NCc3ccccc3Cl)n3nc(-c4cccnc4)nc3c2cc1OC | inactive: -10.4% |
| COc1ccc(Cn2c(C(=O)O)c(CNC3CCC(C)CC3)c3ccc(C)cc32)cc1 (stereo unspecified) | inactive: -9.59% |
| COc1cc(C(=O)N2CCC(c3ccncc3)CC2)cc(OC)c1OC | inactive: -18% |
| COc1cccc(CNC(=O)c2cc(-c3cccs3)nc3ccccc23)c1 | inactive: -15.2% |
| COCCCNC(=O)CSc1nc2nc(C)c(Cc3ccccc3Cl)c(C)n2n1 | inactive: -19.9% |
| Cn1nc(-c2ccccc2)c(-c2ccccc2)c(C(=O)Nc2ccc(S(N)(=O)=O)cc2)c1=O | inactive: -10.6% |
| CCOc1ccc(NC(=O)CN2C(=O)CCSc3ccc(S(=O)(=O)N4CCCC4)cc32)cc1 | inactive: -16.7% |
| O=C(NCC(c1cccnc1)N1CCOCC1)C(=O)Nc1cccc(Cl)c1 (stereo unspecified) | inactive: -12.3% |
| COc1cccc(-n2cc(C(=O)NCCc3cccc(C)c3)c3ccccc3c2=O)c1 | inactive: -14.8% |
| O=C(NCc1ccccc1Cl)C(=O)NCC(c1ccco1)S(=O)(=O)c1cccs1 (stereo unspecified) | inactive: -26% |
| O=C(O)c1ccc(-n2nc(-c3ccccc3O)nc2-c2ccccc2O)cc1 | inactive: -6.52% |
| COc1ccccc1CNC(=O)C1CCN(c2nn3c(=O)cc(C)nc3s2)CC1 | inactive: -18.8% |
| CCC1CCCCN1CCCNC(=O)c1cc2c(Cl)nc3ccc(C)cc3c2s1 (stereo unspecified) | inactive: -24.2% |
| COc1ccc(Cn2c(=O)c3oc4ccccc4c3n(CC(=O)Nc3cc(C)cc(C)c3)c2=O)cc1 | inactive: 4.09% |
| CCC1CCCCN1CCCNC(=O)c1ccc2c(c1)N(Cc1cccc(C)c1)C(=O)c1ccccc1S2(=O)=O (stereo unspecified) | inactive: -17.3% |
| Cc1c2cnn(CC(=O)NCCc3ccccc3)c(=O)c2c(C)n1Cc1ccccc1Cl | inactive: -2.57% |
| COc1cc(C(=O)NCC(c2ccc(N(C)C)cc2)N2CCCC2)cc(OC)c1OC (stereo unspecified) | inactive: -1.88% |
| COc1ccc(/C=C(\C#N)c2nc(-c3ccc(Cl)c(Cl)c3)cs2)cc1OC | inactive: -3.24% |
| CCOc1ccc(NC(=O)CSc2nc3nc(C)c(Cc4ccccc4)c(C)n3n2)cc1 | inactive: -9.42% |
| CC(=O)c1ccc(NC(=O)CN2C(=O)c3cccnc3Sc3ccccc32)cc1 | inactive: 26% |
| CCc1ccc(NC(=O)CSc2nc(=O)n(Cc3cccnc3)c3c2CCC3)cc1 | inactive: -89.9% |
| O=C(COc1ccccc1F)NC1CC(=O)N(c2ccc3c(c2)OCCO3)C1 (stereo unspecified) | inactive: 2.32% |

| Compound | activity change, negative = inhibition |
| --- | --- |
| Cc1ccc(-c2nc3ccc(Br)cn3c2Nc2ccc3c(c2)OCO3)o1 | inactive: 33.6% |
| CCc1ccccc1NC(=O)CSc1nc2c(oc3ccccc32)c(=O)n1-c1ccccc1 | inactive: -13.5% |
| CCOc1ccccc1CNS(=O)(=O)c1cnc(N)nc1 | inactive: -2.14% |
| COc1ccccc1Cn1c(CNS(=O)(=O)c2ccc(Cl)s2)nc2cccnc21 | inactive: -11.7% |
| CC(=O)c1cccc(NC(=O)Cn2cnc3c2c(=O)n(C)c(=O)n3C)c1 | inactive: -16.6% |
| CCC(=O)N1CCc2cc(Br)cc(S(=O)(=O)N3CCCC(C(=O)Nc4ccc(CC)cc4)C3)c21 (stereo unspecified) | inactive: -11.1% |
| CCOC(=O)c1cccc(NC(=O)Cc2ccc(NC(=O)N3CCCCc4ccccc43)cc2)c1 | inactive: -15.5% |
| COc1ccc(-n2c(CCC(=O)O)ccc2-c2ccccc2)cc1 | inactive: -8.98% |
| CCOC(=O)c1c(C)[nH]c(C)c1S(=O)(=O)N1CCCC(C(=O)N2CCN(c3ccc(Cl)cc3)CC2)C1 (stereo unspecified) | inactive: -29.3% |
| Cc1nnc(N2CCN(c3ccccc3)CC2)c2c1nnn2Cc1ccc(F)cc1 | inactive: -12.2% |
| O=C1Nc2c(c(=O)[nH]c(=O)n2-c2ccc(Cl)cc2)C1(NS(=O)(=O)c1ccccc1)C(F)(F)F (stereo unspecified) | inactive: -2.33% |
| Cc1ccc(C)c(NC(=O)CCn2cnnn2)c1 | inactive: -4.93% |
| O=C(Nc1ccc(F)cc1F)c1ccc(-c2ccccc2)s1 | inactive: 17.1% |
| Cc1ccc2nc(CSc3nnc(NC(=O)COc4ccccc4F)s3)cc(=O)n2c1 | inactive: 3.95% |
| COc1ccc(C)cc1N(CC(=O)N1CCC(C)CC1)S(=O)(=O)c1ccc(C)cc1 | inactive: -22.6% |
| Nc1c(C(=O)c2ccc3c(c2)OCO3)sc(Nc2ccccc2F)c1S(=O)(=O)c1ccccc1 | inactive: -26% |
| CCOC(=O)CSc1nc2sc3c(c2c(=O)n1CC)CCCC3 | inactive: -12.6% |
| COc1ccc(C2CC(=O)c3cc(-c4nc(-c5cccc([N+](=O)[O-])c5)cs4)c(=O)n(-c4cc(C)cc(C)c4)c3C2)cc1 (stereo unspecified) | inactive: 0.479% |
| O=C(CCCn1c(=O)c2sccc2n(Cc2c(F)cccc2Cl)c1=O)NCc1ccccc1 | inactive: -2.09% |
| CCCC(=O)Nc1ccc2nn(-c3ccc(CC)cc3)nc2c1 | inactive: 38.4% |
| Cc1cnc2c(c1SCC(=O)N(C)c1ccccc1)c(=O)n(C)c(=O)n2C | inactive: -6.57% |
| Cn1c(=O)c2c(-c3ccccc3Br)n(C(C)(C)C)cc2n(C)c1=O | inactive: -24.4% |
| Cc1ccc(N2CCN(Cc3nnc(-c4ccc5c(c4)OCO5)o3)CC2)c(C)c1 | inactive: -5.3% |
| Cc1cc(C)cc(NC(=O)CSCc2cc(=O)c3cc(Cl)ccc3[nH]2)c1 | inactive: 0.986% |

| Compound | activity change, negative = inhibition |
| --- | --- |
| CC1(C)CC(=O)c2cc(-c3nc(-c4ccc(Br)cc4)cs3)c(=O)n(-c3ccccc3)c2C1 | inactive: -7.63% |
| Cc1c(-c2nc(-c3ccc4c(c3)[nH]c(=O)n4C)no2)cccc1[N+](=O)[O-] | inactive: -13.2% |
| O=C1c2ccccc2-c2onc3c(Br)cc(NC4CCCCC4)c1c23 | inactive: 11.1% |
| CN1C(C(=O)Nc2ccccn2)=C(O)c2ccccc2S1(=O)=O | inactive |
| Cc1cccc(N2C(=O)CSC23C(=O)N(CC(=O)NCCc2ccccc2)c2ccccc23)c1 (stereo unspecified) | inactive: -10.4% |
| COc1ccc(-c2cc(C(F)(F)F)n3nc(-c4ccc(Cl)cc4)cc3n2)cc1OC | inactive: -4.87% |
| COCCNC(=O)CSc1nc2cc3c(cc2c(=O)n1CCCCCC(=O)NCCc1ccc(OC)c(OC)c1)OCO3 | inactive: -11.8% |
| O=C(Cc1ccccc1)NC1CC(=O)N(c2ccc3c(c2)OCCO3)C1 (stereo unspecified) | inactive: -5.88% |
| NCCS | inactive: 14.1% |
| CCN(CC)c1ccc(NC(=O)C(NS(=O)(=O)c2cccs2)C(C)C)c(C)c1 (stereo unspecified) | inactive: -18.4% |
| O=C(OCc1ccccc1F)c1ccc(-c2nnn(Cc3ccccc3)n2)cc1 | inactive: 0.521% |
| CCn1nc(-c2ccccc2)c(-c2ccccc2)c(C(=O)Nc2ccccc2C(N)=O)c1=O | inactive: -0.258% |
| CN(C(=O)c1cnc(N2CCOCC2)c2ccccc12)c1ccccc1F | inactive: 1.87% |
| CCCOc1ccc2c(c1)CC[C@@H]1[C@@H]2CC[C@]2(C)C(OC)CC[C@@H]12 (stereo partly specified) | inactive: 3.56% |
| COc1ccc(-n2nnnc2C2CCN(S(=O)(=O)c3cccc(Cl)c3C)CC2)cc1 | inactive: -14% |
| Cc1ccccc1-c1nnc(CN2CCN(c3cccc(C)c3C)CC2)o1 | inactive: -9.28% |
| Brc1ccc(-c2nnc3sc(CN4CCCCC4)cn23)cc1 | inactive: -12.1% |
| Cc1ccc(NC(=O)CSc2nnc(C)n3c2cc2sccc23)c(C)c1 | inactive: 9.22% |
| CC(C)(C)NC(=O)c1cnn(-c2ccccc2)c1C1CCN(C(=O)OC(C)(C)C)CC1 | inactive: -9.13% |
| Cc1ccc(CSc2ccc(-c3cccs3)nn2)cc1 | inactive: 66.7% |
| O=C(Cn1ncc2c3ccccc3n(Cc3ccccc3F)c2c1=O)NC1CCCCCC1 | inactive: -9.71% |
| O=C(NCc1ccccc1Cl)c1cc2c(s1)-c1ccccc1SC2 | inactive: -2.76% |
| COc1cc(C(=O)NCC(c2cccnc2)N2CCc3ccccc3C2)cc(OC)c1OC (stereo unspecified) | inactive: -13.6% |
| CCC(=O)Nc1ccccc1-c1nc2ccccc2n(CC(=O)c2ccc(C)c(C)c2)c1=O | inactive: -3.46% |
